Measurements as given in the RNAGym collection of RNA variant scans (doi:10.7554/elife.90254).
The source gives no read counts; variants with many changes may rest on few reads.

B1: LINE1-mini (parent)
chain: GGCAGAGCUCAACACAGCGUGGCAAAGUGGCUGUGGCUAGACUGCC

Variants of: B1
Assay: self-cleavage, relative activity (ratio to wild type); higher = more cleavage; in vitro, sequencing; the parent is a self-cleaving ribozyme

Row | Variant | self-cleavage
1 | GGCAGAGCACAACACAGUGUGGCAAAGUGGCUUUGGCUAGACGGUC [U9A C18U G33U U43G C45U] | 0.02
2 | GGCAGAGCACAACACAGCGUGGCAAAGUGGAUGUGGCUAGACCGCC [U9A C31A U43C] | 0.17
3 | GGCAGAGCACAACUCAGCGUGACAAAGUGGCUGUGGCUAGACUGCC [U9A A14U G22A] | 0.09
4 | GGCAGAGCACUAAACAGCGUGGCAAAGUCGCUUUGGCUAGACUGCC [U9A A11U C13A G29C G33U] | 0.01
5 | GGCAGAGCAAAUCACAGCGUGCCAAAGUGGCUGUCGCUAGACUGCC [U9A C10A A12U G22C G35C] | 0.03
6 | GGCAGAGCAAAAAACAGCGUGGCAAAGUGGCUGUGACUAGACAGCC [U9A C10A C13A G36A U43A] | 0.03
7 | GGCAGAGCACACCACAGCGUGGCAAAGUGGCUUUUGCUAGACUGCC [U9A A12C G33U G35U] | 0.01
8 | GGCAGAGCACAACACAGCCUGGCAAAUUGGCUGUGGCUAGACUGCC [U9A G19C G27U] | 0.05
9 | GGCAGAGCAUGACACAGCGUGGCAAAGUGGCUGUGGCUAGACUGCC [U9A C10U A11G] | 0.04
10 | GGCAGAGCAGAACACAUCGCGGCAAAUUGGCUGUGGCUAGCCUGCC [U9A C10G G17U U20C G27U A41C] | 0.01
11 | GGCAGAGUUCAACACAGCGGGGCAAAGUGGCUGUUGCUAGACUGCC [C8U U20G G35U] | 0.12
12 | GGCAGAGCACAACACAGCGUGGGUAAGUGGCUAUGGCUAGACUGCC [U9A C23G A24U G33A] | 0.06
13 | GGCAGAGCAGAACACAGCGUGGUAAAGUGGCUGUGGAUAGACUGCC [U9A C10G C23U C37A] | 0
14 | GGCAGAGCACAACACAGCAUGGCAAAGUGGCUGUGGCUAGACUGCU [U9A G19A C46U] | 0.08
15 | GGCAGAGCACAACACAGCGUGGCAUAGUCGCUGUGGCUAGACUGCU [U9A A25U G29C C46U] | 0.13
16 | GGCAGAGCACAACACAGCGUGGCACAGUGGCUGAGGCUAGACUUCC [U9A A25C U34A G44U] | 0.08
17 | GGCAGAGCACGACACAGCUUGGCAACGUGGCUCUGGCGAGACUGCC [U9A A11G G19U A26C G33C U38G] | 0.01
18 | GGCAGAGCACAACACAGCAUGGCAAAGUGUCUGUGGCUAGACUGGC [U9A G19A G30U C45G] | 0.17
19 | GGCAGAGCACAAAACAGCAUGGCAAAGUGGCUGUGGCUAGACUGCC [U9A C13A G19A] | 0.02

Row | Variant | self-cleavage
20 | GGCAGAGUUCAACACAGCGUGGCAAAGAGGCAGUGGCUAGACUGCC [C8U U28A U32A] | 0.49
21 | GGCAGAGCACAACACGGCGUGGCAAAGUGGCUGUGGCUGGACUGCC [U9A A16G A39G] | 0.09
22 | GGCAGAGCACAACAGAGCGUGGCAAAGCGGCUGUGGCUAGACUGCC [U9A C15G U28C] | 0.07
23 | GGCAGAGCACAACACAGCGUGGCAUAGUGGCUAUAACUAGACUGCC [U9A A25U G33A G35A G36A] | 0.17
24 | GGCAGAGUUCAACACAGCGUGGCAAAGUGGCUGGGGGUAGAUCGCC [C8U U34G C37G C42U U43C] | 0.18
25 | GGCAGAGCAGAAGACAGCGUGGCAAAGUGGCUGUGGCUAGACUGCC [U9A C10G C13G] | 0.03
26 | GGCAGAGUUCAACACAGCGUGGCAAAGGGGAUGUGGCUAGACUGCC [C8U U28G C31A] | 0.13
27 | GGCAGAGCACAACACAGCGUGGCAAUGUAGCAGUGGCUAGACUGCC [U9A A26U G29A U32A] | 0
28 | GGCAGAGCACAACACAGCGUGGCAAAGUGGUUGUGGGUAGAGUGCC [U9A C31U C37G C42G] | 0.01
29 | GGCAGAGCAAAACACAGCGUGGCAAAUUCGCUGUGGCUAGACUGCC [U9A C10A G27U G29C] | 0.01
30 | GGCAGAGCACAACACUGCGUGGCAAAGUUACUAUGGCUAGACUGCC [U9A A16U G29U G30A G33A] | 0.18
31 | GGCAGAGCACAACACCGCGUGGCAAAGUGUCUGUGGCUAGACUGCC [U9A A16C G30U] | 0.02
32 | GGCAGAGCACAACACAGCGUGGCAUAGUGGCUGUGGCCAGCCUGCU [U9A A25U U38C A41C C46U] | 0.06
33 | GGCAGAGUUCAACACAGCGUGGCAAAGUGGCCGUCGCUAGACUGCC [C8U U32C G35C] | 0.05
34 | GGCAGAGCAGAACACAGCGUCGCACAGUGGCUGUGGCUAGACUGCC [U9A C10G G21C A25C] | 0.02
35 | GGCAGAGCACAAUACAGCCAGGCUAGGUGGCUGUGGCUAGACUGCC [U9A C13U G19C U20A A24U A26G] | 0.02
36 | GGCAGAGCACAACACAGCGUGGCAAAGUGGCUGUGGCUUGCCUGCC [U9A A39U A41C] | 0.03
37 | GGCAGAGUUCAACACAGCGUGGCAAAGUGGCUGUGGCAAUACUGUC [C8U U38A G40U C45U] | 0.23
38 | GGCAGAGCACACCACGACGUGGCAAAGUGGCUGUGGCUAGACUGCC [U9A A12C A16G G17A] | 0.02

Row | Variant | self-cleavage
39 | GGCAGAGCACAACACAGAGUGGCAAAGUGGCUGUGGCUAGACUGAC [U9A C18A C45A] | 0.07
40 | GGCAGAGCACAACACAGCGUGGCAAGUUGGAUGUGGCUAGACUGCC [U9A A26G G27U C31A] | 0.07
41 | GGCAGAGUUCAACACAGCGCGGCAAAGUGGCUGUGGUUAGACUGCC [C8U U20C C37U] | 0.13
42 | GGCAGAGCACAGCACAGUGUGGCAAAGUGGCUGUGGCUAGACUGCC [U9A A12G C18U] | 0.01
43 | GGCAGAGCACAACAUAGCCUGGCUAAGUGGCUGUGGCUAGACUGCC [U9A C15U G19C A24U] | 0.06
44 | GGCAGAGCACAACACAGCGUGGCAAAGUGGAUGUGACUAGACUGCG [U9A C31A G36A C46G] | 0.02
45 | GGCAGAGCACAACCCAGCGUGGCAAAGUGGCUGGGGCUAGACUGCC [U9A A14C U34G] | 0.07
46 | GGCAGAGCAGAACACAGCGUGGCACAGUGGCUGUGGCUAGACUGCC [U9A C10G A25C] | 0
47 | GGCAGAGCACAAAACAGCGUGGCAAAGUGGCUGUGGCUAGACUGAC [U9A C13A C45A] | 0.32
48 | GGCAGAGCACAACAAAGCGUGGCAAAGAGGCUGUGGCUAGACUGCC [U9A C15A U28A] | 0.33
49 | GGCAGAGCACAACACAGCGUGGCGAAGUGGCUGUGGCUAGACUACC [U9A A24G G44A] | 0.04
50 | GGCAGAGCAUAGCACAGCGUGGCAAAGUGGCUGUGGCUAUAUUGCC [U9A C10U A12G G40U C42U] | 0.05
51 | GGCAGAGCACAACACAGAGUGGGAAAGUGGCUGUGGCUAGACUGCC [U9A C18A C23G] | 0.02
52 | GGCAGAGCACACCACAGCGUGGGAAAGUGGCUGUGGCUAGACUGCC [U9A A12C C23G] | 0.01
53 | GGCAGAGUUCAACACAGCGGGGCAAAGUGGCUGUGGCUAGAUUGCG [C8U U20G C42U C46G] | 0.11
54 | GGCAGAGUUCAACACAGCGUGGCAAAGGGGCUGUGGCUCUACUGCC [C8U U28G A39C G40U] | 0.12
55 | GGCAGAGUUCAACACAGCGUGGCAAAGUGGCGGUGGCUAAACUGCC [C8U U32G G40A] | 0.09
56 | GGCAGAGUUCAACACAGCGUGGCAAAGUGGCCGUGGCUAGACAGCC [C8U U32C U43A] | 0.06
